# Experimental data: publication PMC4336329 (PLoS ONE, 2015)
# About 14,000 (4.5%) of roughly 310,000 compounds showed an effect of 50% or more. The effect is printed as a negative number. Some of the results follow.
# Biological target: human ether-à-go-go-related gene (hERG) potassium channel (human, UniProt Q12809)
# Assay: primary screen, population patch clamp on CHO cells stably expressing hERG
# 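Also: peak tail current of the secondary pulse compared with the same well before compound.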
# Sequence of human ether-à-go-go-related gene (hERG) potassium channel (Q12809 whole entry, looked up): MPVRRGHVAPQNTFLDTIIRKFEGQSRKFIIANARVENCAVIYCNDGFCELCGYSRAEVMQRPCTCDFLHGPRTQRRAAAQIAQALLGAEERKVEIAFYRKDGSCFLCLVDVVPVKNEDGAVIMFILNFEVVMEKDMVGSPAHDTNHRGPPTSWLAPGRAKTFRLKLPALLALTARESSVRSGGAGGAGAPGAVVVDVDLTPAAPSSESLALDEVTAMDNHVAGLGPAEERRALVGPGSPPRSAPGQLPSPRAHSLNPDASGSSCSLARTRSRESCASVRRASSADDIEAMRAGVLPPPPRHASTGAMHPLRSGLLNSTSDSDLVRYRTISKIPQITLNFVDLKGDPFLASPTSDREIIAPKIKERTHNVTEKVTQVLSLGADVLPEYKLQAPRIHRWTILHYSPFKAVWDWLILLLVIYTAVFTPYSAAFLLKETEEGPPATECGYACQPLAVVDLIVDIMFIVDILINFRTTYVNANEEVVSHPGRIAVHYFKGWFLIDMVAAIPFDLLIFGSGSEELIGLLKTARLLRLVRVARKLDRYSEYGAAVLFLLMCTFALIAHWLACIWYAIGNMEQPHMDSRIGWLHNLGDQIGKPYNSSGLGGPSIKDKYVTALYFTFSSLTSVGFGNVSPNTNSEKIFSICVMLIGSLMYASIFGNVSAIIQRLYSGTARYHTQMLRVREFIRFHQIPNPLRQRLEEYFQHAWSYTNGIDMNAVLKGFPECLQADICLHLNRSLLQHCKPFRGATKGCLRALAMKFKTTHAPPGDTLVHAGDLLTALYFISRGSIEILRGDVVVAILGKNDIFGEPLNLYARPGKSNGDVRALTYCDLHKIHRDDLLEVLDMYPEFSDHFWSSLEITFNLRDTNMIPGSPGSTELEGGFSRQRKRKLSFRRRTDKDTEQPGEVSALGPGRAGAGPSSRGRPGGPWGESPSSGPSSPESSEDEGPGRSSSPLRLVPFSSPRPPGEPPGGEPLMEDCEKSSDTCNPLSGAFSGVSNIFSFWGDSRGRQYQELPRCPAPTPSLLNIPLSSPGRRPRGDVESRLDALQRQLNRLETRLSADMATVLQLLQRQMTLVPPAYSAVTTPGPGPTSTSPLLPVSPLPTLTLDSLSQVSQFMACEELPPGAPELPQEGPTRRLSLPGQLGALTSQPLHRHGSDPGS
row,Compound,"hERG current change (%, negative = inhibition) at 10uM"
1,CC(C)COC(=O)C1C(=O)CC(C)(O)C(C(=O)OCC(C)C)C1c1cccnc1 (stereo not drawn),-23.9%
2,Cc1cc(C)nc(NC(=O)Cc2ccc(Br)cc2)n1,18.9%
3,COc1ccc(/C=N/NC(=O)CSCC(=O)Nc2ccccc2)cc1OC,3.9%
4,COC(=O)c1cccc(N(C(=O)c2ccco2)C(C(=O)NC2CCCC2)c2ccc(N3CCOCC3)cc2)c1 (stereo not drawn),2.19%
5,COc1ccccc1CNC(=O)[C@@H]1CCCN1S(=O)(=O)c1ccc(Cl)cc1,-11.9%
6,CC(NC(=O)Cc1cccs1)c1ccccc1 (stereo not drawn),24.5%
7,CC(=O)c1c(C)[nH]c(C(=O)OCC(=O)N2CCN(S(=O)(=O)c3ccc(C)cc3C)CC2)c1C,-15.9%
8,C=CCNC(=O)c1ccccc1NS(=O)(=O)c1ccc(SC)cc1,-6.5%
9,COc1ccc(CC(=O)N2CCN(c3cccc(C)c3C)CC2)cc1,-13.2%
10,CCOc1ccc(Nc2ncnc3c2nnn3Cc2ccccc2)cc1,3.35%
11,O=C(NCc1cccc(Cl)c1)c1ccc2c(c1)OCCO2,7.21%
12,CCOC(=O)c1c(C)[nH]c(C(=O)CSc2nc3ccccc3o2)c1C,-1.09%
13,CCOC(=O)CCCn1c(C)nc(=O)c(-c2ccccc2)c1C,3.92%
14,O=[N+]([O-])c1cc(-c2csc(NCCc3nc4cc(Cl)c(N5CCCCC5)cc4n3CCCO)n2)ccc1Cl,9.64%
15,COC(=O)c1ccc(NC(=O)CN2C(=O)CCC2=O)cc1,9.66%
16,CCCNC(=O)c1sc2c(c1C(=O)Nc1ccccn1)CCCC2,0.34%
17,COc1ccc(C(CC(=O)O)NS(=O)(=O)c2ccc3c(c2)N(C(C)=O)CC(C)O3)cc1 (stereo not drawn),16.8%
18,CCn1nc(C)c(CN2CCCC(CO)(Cc3ccccc3)C2)c1C (stereo not drawn),-7.7%
19,CC(OC(=O)c1ccc(Cl)c(S(=O)(=O)N2CCCC2)c1)C(=O)NC1CCCCC1C (stereo not drawn),-6.43%
20,Cc1cccc(NC(=O)CCc2c(C)nc3ncnn3c2C)n1,-2.61%
21,Cc1cccc(-n2c(Cc3cc(=O)[nH]c(=O)[nH]3)nnc2SCC(=O)NCc2ccco2)c1,-1.03%

row,Compound,"hERG current change (%, negative = inhibition) at 10uM"
1,COc1ccc(OC)c(C(=O)c2ccc(Cl)cc2)c1,-13.5%
2,CCCCC1=CC2=CC(=O)C(C)(OC(=O)c3ccc(Cl)nc3)C(=O)C2=CO1 (stereo not drawn),7.18%
3,CC(=O)c1ccc(-c2nnc(CCC(=O)N(C)Cc3cccc4cnccc34)o2)s1,-81.4%
4,CN(Cc1cc([N+](=O)[O-])ccc1Cl)C(=O)C[n+]1ccccc1.[Cl-],24%
5,Cc1noc(C)c1CSCC(=O)Nc1cc(C(F)(F)F)ccc1N1CCOCC1,-37.9%
6,CCOC(=O)N1CCN(C(=O)c2cc3c(-c4ccc(Cl)cc4)nn(C)c3s2)CC1,-34.1%
7,CSc1nc(C(=O)N2CCc3c([nH]c4ccccc34)C2c2ccccn2)cs1 (stereo not drawn),-4.85%
8,COc1ccc(C(=O)CCC(=O)N2CCN(c3ccccc3)CC2)cc1,-9.62%
9,CC(C)Cn1c(=O)c(C(=O)Nc2ccccc2S(N)(=O)=O)c(O)c2ccccc21,-11.2%
10,Cc1cc(C)c(C#N)c(Oc2ccccc2Br)n1,3.63%
11,Cc1nn(CC(=O)NNC(=O)c2ccccc2F)c([N+](=O)[O-])c1Br,-6.91%
12,CCOc1ccc(OCc2cccc(C(=O)N/N=C/c3cccnc3)c2)cc1,-17.1%
13,COc1ccc(N2CCN(Cc3cc(=O)oc4ccc(Cl)cc34)CC2)cc1,12.9%
14,COc1cccc(C(=O)C2CCCN(Cc3cccc(-n4nc(C)cc4C)c3)C2)c1 (stereo not drawn),-59.4%
15,COc1ccc(-c2nnc(NC(=O)c3ccccc3[N+](=O)[O-])s2)c(OC)c1,-15.1%
16,Cc1nn(-c2cc(C)c3ccccc3n2)c2c1C1C(C2)C1(C)C (stereo not drawn),12.6%
17,CCc1nc2c(sc3nc4c(cc32)COC(C)(C)C4)c(=O)n1Cc1ccco1,-16%
18,Fc1ccc(N2CCN(C(c3cccs3)c3nnnn3CCc3ccccc3)CC2)cc1 (stereo not drawn),3.96%
19,COc1ccc(CCN2C(=NC(=O)CCC(=O)O)SC3CS(=O)(=O)CC32)cc1 (stereo not drawn),-4.44%
20,CCn1c(SCc2nc3scc(-c4ccccc4)c3c(=O)[nH]2)nnc1-c1ccc(Cl)cc1,-3.18%
21,Cc1ccc(CSc2nc3ccccc3c(=O)n2Cc2ccco2)cc1,8.42%

row,Compound,"hERG current change (%, negative = inhibition) at 10uM"
1,O=C(CN1C(=O)CSC1=O)NCc1ccccc1,2.82%
2,CC(CN1CCOCC1)OC(=O)c1cccc(Br)c1.Cl (stereo not drawn),-5.73%
3,Cc1cc(SCC(=O)N/N=C/c2ccc(O)c(O)c2)nc2ccccc12,7.6%
4,Cc1cc(=O)[nH]c2c1c(C)nn2C1CCOC(C)(C)C1 (stereo not drawn),9.96%
5,Cc1ccccc1NC(=S)N(Cc1cccs1)C1CCCCC1,17.3%
6,CC1(C)CC(=O)C(C(C2=C(O)CC(C)(C)CC2=O)c2ccc(O)c([N+](=O)[O-])c2)=C(O)C1,-1.33%
7,Cc1ccc(CNC(=O)CCSCc2ccccc2C)cc1,6.59%
8,CCCN(CC(=O)Nc1ccccc1C)C(=O)c1ccc(S(=O)(=O)N2CCCCCC2)cc1,-45.2%
9,CCc1ccc(OCc2nnc(SCC(=O)NCc3ccco3)o2)cc1,-55.2%
10,CCCC1(C(=O)OC)NC(c2cccc(F)c2)C2C(=O)N(CC)C(=O)C21 (stereo not drawn),-6.76%
11,Cc1nc(SCC(=O)N(C)C2(C#N)CCCCC2)c2ccccc2n1,-14.2%
12,C[C@@H]1O[C@@H](O[C@@H]2C=C3CCC4C(CC[C@]5(C)[C@@H](c6ccc(=O)oc6)CC[C@]45O)[C@@]3(C)CC2)[C@H](O)[C@H](O)[C@H]1O (stereo partly drawn),17.4%
13,COc1ccccc1OCCn1cc(C(=O)c2ccco2)c2ccccc21,7.74%
14,CCOc1ccc(C2C(C#N)=C(N)SC(N)=C2C#N)cc1OC,0.708%
15,Cc1cccc2cc(CN(Cc3ccccc3)C(=O)N(C)C)c(=O)[nH]c12,-11.5%
16,Cc1c2cnn(CC(=O)NCCCN3CCCCC3C)c(=O)c2c(C)n1Cc1ccccc1 (stereo not drawn),11.1%
17,O=C(NC1CCCC1)C(c1ccncc1)N(Cc1ccccc1F)C(=O)c1csnn1 (stereo not drawn),8.22%
18,COc1ccc(NC(=O)CCNC(=O)N2CC(=O)Nc3ccccc32)c(OC)c1,17.8%
19,Cc1ccccc1NC(=O)c1sc2nc3c(c(-c4ccco4)c2c1N)CCCC3,-10.6%
20,CN(Cc1ccc(F)cc1)S(=O)(=O)c1nnc(NC(=O)c2ccccc2)s1,4.03%
21,COc1ccc(NC(=O)CCNS(=O)(=O)c2ccccc2F)cc1S(N)(=O)=O,22.1%

row,Compound,"hERG current change (%, negative = inhibition) at 10uM"
1,N/C(=N\OC(=O)c1cc(Br)ccc1Cl)c1cccnc1,13.6%
2,COc1cc(OC)cc(OC(=O)C2CCN(C3=NS(=O)(=O)c4ccccc43)CC2)c1,15.2%
3,COc1ccc(CNC(=O)c2ccc3ccccc3n2)cc1,2.83%
4,CCCN1CCN(C(=O)c2ccc(CS(=O)c3ccc(F)cc3)o2)CC1 (stereo not drawn),-14.8%
5,CCCCN(C(=O)CCC(=O)Nc1cc(C)on1)C(C(=O)NC(C)(C)C)c1ccccc1Cl (stereo not drawn),3.59%
6,COc1ccc(OC)c(-n2c(C)ccc2-c2ccc(S(C)(=O)=O)cc2)c1,-10.5%
7,O=S1(=O)N=C(N(CCO)/N=C/C=C/c2ccccc2)c2ccccc21,-41.6%
8,COc1cc(NC(=O)c2c3c(nc4ccccc24)CCC3)cc(OC)c1,11.3%
9,CC(C)OP(=O)(OC(C)C)C(O)c1ccc2c(c1)OCO2 (stereo not drawn),23.2%
10,CN(CC(=O)c1c(N)n(C)c(=O)n(C)c1=O)c1ccccc1,3.37%
11,CCCCCn1c(=O)[nH]c2cc(C(=O)N3CCN(c4ccccc4F)CC3)ccc2c1=O,16.8%
12,COC(=O)c1c(N)sc(C(=O)N2CCOCC2)c1C,6.03%
13,CCc1cccc(CC)c1NC(=O)C1CC(=O)N(c2ccc3c(c2)OCCO3)C1 (stereo not drawn),0.437%
14,COc1ccccc1/C=C1\SC(=S)N(C(C(=O)O)c2ccccc2)C1=O (stereo not drawn),-7.69%
15,O=[N+]([O-])c1ccc(S(=O)(=O)Nc2ccc(-c3ccc(N4CCOCC4)nn3)cc2)cc1,-7.79%
16,O=C(Cn1cccc1C(=O)c1ccccc1)NCCc1ccccc1,16.3%
17,Cc1c(NC(=O)c2ccc(S(=O)(=O)N3CCOCC3)cc2)cccc1[N+](=O)[O-],-6.54%
18,CCn1c(SCC(=O)NC(=O)NCc2ccco2)nnc1-c1cccs1,-49.5%
19,CN(C)S(=O)(=O)c1cc(NC(=O)COC(=O)/C=C/c2ccco2)ccc1Cl,-21.7%
20,O=C(O)/C=C\C(=O)Nc1ccc(Oc2ccccc2)cc1,4.72%
21,Cn1c(=O)c2c(nc(NCc3ccco3)n2C)n(C)c1=O,13.5%
